# Experimental data: the supplement of paper PMC9446081
# Among all 39,000 compounds or so, about 220 (0.56%) showed activity. Some of the results follow.
# Test system: Escherichia coli K-12 BW25113
# Experiment: relative growth (OD600 normalised to plate interquartile mean) (fraction); higher = less growth inhibition, active = 0.2 or less
# Conditions: 50 µM; LB; incubation time: overnight (16-24 h)
# 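Also: static incubation at 37 °C against the wild-type strain, values averaged over two biological replicates.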
row,Structure (SMILES),relative growth
1,N#[N+]CC(=O)CC[C@H](N)C(=O)O,inactive: 1
2,C[N+]1(C)CCCC(OC(=O)C(O)(c2ccccc2)c2ccccc2)C1.[Br-] (configuration not stated),inactive: 0.985
3,CC=C1CC(C)C(O)(CO)C(=O)OCC2=CCN3CCC(OC1=O)C23 (configuration not stated),inactive: 1.04
4,COc1ccc(OC(=O)N(C)C[C@H]2OCc3ccccc3-c3c(n(C)c4ccccc34)C(=O)N([C@H](C)CO)C[C@@H]2C)cc1,inactive: 0.981
5,CS(=N)(=O)CC[C@H](N)C(=O)O (some centres not stated),inactive: 0.983
6,CC(C)[C@H]1CNC(=O)C1,inactive: 0.976
7,CN1CC2(CNC2)OCCS1(=O)=O,inactive: 1.03
8,CCNC1(c2cccs2)CCCCC1=O.Cl (configuration not stated),inactive: 1.03
9,C[C@@H](N)Cc1ccco1,inactive: 0.916
10,Cc1ccc2c(CCN)c(C)n(C)c2c1,inactive: 1.02
11,NCCc1cc(O)c(O)cc1O,inactive: 1.01
12,C[C@@H]1O[C@@H](OC(=O)Cc2ccccc2)[C@H](O)[C@H](O)[C@H]1O,inactive: 0.981
13,NC[C@H](CC(=O)O)c1ccc(Cl)cc1,inactive: 0.993
14,COC(=O)C1=COC(C)C2CN3CCC4(C(=O)Nc5ccccc54)C3CC12 (configuration not stated),inactive: 1.01
15,CCC(=O)CCCCC[C@@H]1NC(=O)[C@H]2CCCCN2C(=O)[C@H]([C@@H](C)CC)NC(=O)[C@H](Cc2cn(OC)c3ccccc23)NC1=O,inactive: 0.957
16,c1cnc2[nH]cc(CN3CCNCC3)c2c1,inactive: 0.977
17,COC(=O)C(c1ccccc1)C1CCCCN1.Cl (configuration not stated),inactive: 1.07
18,COc1ccc(CCN)cc1O,inactive: 1
19,OC1(c2cccnc2)CCNCC1,inactive: 0.977
20,CC(C)(C)C(=O)C(Oc1ccc(Cl)cc1)n1cncn1 (configuration not stated),inactive: 1.14
21,COc1ccc2c(c1O)-c1c(OC)c(OC)cc3c1C(C2)N(C)CC3 (configuration not stated),inactive: 1.09
22,Cl.NCCc1c[nH]c2ccc(O)cc12,inactive: 0.88
23,COCC(=O)N[C@@H]1[C@@H]2CNC[C@@H]21,inactive: 0.973

row,Structure (SMILES),relative growth
1,CNC1C(O)C(OC2C(N)CC(N)C(OC3OC(C(C)O)C(O)C(O)C3N)C2O)OCC1(C)O (configuration not stated),active: 0.0438
2,COC(=O)C[C@](O)(CCC(C)(C)O)C(=O)O[C@@H]1C(OC)=C[C@]23CCCN2CCc2cc4c(cc2[C@H]13)OCO4,inactive: 1.02
3,Oc1ccc(N2CCNCC2)cc1,inactive: 1.02
4,NC[C@@H](CC(=O)O)c1ccc(Cl)cc1,inactive: 1.02
5,CCCCCCCCCCCCCC(=O)O[C@@H]1[C@@H](C)[C@@]2(O)[C@@H](C=C(CO)C[C@]3(O)C(=O)C(C)=C[C@@H]23)[C@@H]2C(C)(C)[C@]12OC(C)=O,inactive: 1.02
6,C=CCN1C(=O)NC(=O)/C(=C/c2ccco2)C1=O,inactive: 0.971
7,CCN(C(C)=O)c1cccc(-c2ccnc3c(C#N)cnn23)c1,inactive: 1.06
8,COC12CC(COC(=O)c3cncc(Br)c3)CN(C)C1Cc1cn(C)c3cccc2c13 (configuration not stated),inactive: 0.941
9,O=[N+]([O-])c1ccc([As](=O)(O)O)cc1,inactive: 0.967
10,CN(C)NC(=O)CCC(=O)O,inactive: 1.01
11,CC1(C)C(C=C(Cl)Cl)C1C(=O)OCc1cccc(Oc2ccccc2)c1 (configuration not stated),inactive: 1.05
12,COc1ccc2c(c1)[nH]c1c(C)nccc12,inactive: 0.897
13,CN1C(=O)NC(=O)/C(=C\C=C\c2ccco2)C1=O,inactive: 1.02
14,O=C(c1ccccc1)C12CN3CN(CN(C3)C1)C2,inactive: 1.01
15,O=C(O)Cc1cccnc1C(=O)O,inactive: 0.97
16,Oc1c(Cl)c(Cl)c(Cl)c(Cl)c1Cl,inactive: 0.738
17,NC1N[C@H]2CCCC[C@@H]2N1,inactive: 0.993
18,Cc1ccc(OC(=O)N(C)C[C@@H]2OCc3ccccc3-c3c(n(C)c4ccccc34)C(=O)N([C@H](C)CO)C[C@@H]2C)cc1,inactive: 1.01
19,O=C([O-])c1ccccc1-c1c2cc(Br)c(=O)cc-2oc2[c]([Hg][OH])c([O-])c(Br)cc12.[Na+].[Na+],inactive: 0.912
20,CO[C@@H]1C[C@@H](C[C@H]2CC[C@H](C)[C@H]([C@@H](C)C(=O)O)O2)O[C@]2(O[C@](C)([C@H]3CC[C@@](C)([C@H]4O[C@@H]([C@H]5O[C@@](O)(CO)[C@H](C)C[C@@H]5C)C[C@@H]4C)O3)C[C@H]2C)[C@@H]1C,inactive: 0.945
21,Cc1ccc(OC(=O)N(C)C[C@@H]2OCc3ccccc3-c3c(n(C)c4ccccc34)C(=O)N([C@@H](C)CO)C[C@@H]2C)cc1,inactive: 1
22,CN(C)C(=O)CN1CCN(C)C(=O)[C@]12CCN(c1ncccn1)C2,inactive: 1.05
23,CC(=O)OCC1=C(C(=O)O)N2C(=O)[C@@H](NC(=O)CCC[C@@H](N)C(=O)O)[C@@H]2SC1,inactive: 1.02

row,Structure (SMILES),relative growth
1,COC(=O)[C@@H](N)CCCNC(N)=N[N+](=O)[O-],inactive: 1.01
2,CCOC(OCC)P(=O)(O)CCCN,inactive: 1
3,NCCc1c[nH]c2ccc(OCC(=O)O)cc12,inactive: 1.01
4,NCCc1c[nH]c2ccccc12,inactive: 1.01
5,Br.COc1ccc2c(c1)C13CCCCC1C(C2)N(C)CC3 (configuration not stated),inactive: 1.06
6,NC1CC1c1ccccc1.O=S(=O)(O)O (configuration not stated),inactive: 1.02
7,COc1cc(CCN)ccc1O,inactive: 0.989
8,O[C@H]1[C@H]2[C@H](O)CCCN2C[C@H]1O,inactive: 1.01
9,N#Cc1cnccn1,inactive: 0.89
10,CC(C)(C)OC(=O)N[C@H]1[C@@H]2CNC[C@@H]21,inactive: 1
11,Cn1cc(CN2C[C@H]3CNC[C@H]3C2)cn1,inactive: 0.972
12,Cn1cc([C@@H](O)c2ccccc2)[n+](C)c1,inactive: 1.02
13,Nc1nnns1,inactive: 0.989
14,CN1CCN(C(=O)OC2c3nccnc3C(=O)N2c2ccc(Cl)cn2)CC1 (configuration not stated),inactive: 1.06
15,CN(C)[C@@H]1C(=O)C(C(N)=O)=C(O)[C@@]2(O)C(O)=C3C(=O)c4c(O)cccc4[C@](C)(O)[C@H]3C[C@@H]12,active: 0.0416
16,CN1CCc2cc3c(cc2C1C1OC(=O)c2c1ccc1c2OCO1)OCO3 (configuration not stated),inactive: 1.1
17,N=C(N)N/N=C/c1ccc2c(c1)OCO2,inactive: 0.984
18,COc1cc2c(cc1OC)C1CC(=O)C(CC(C)C)CN1CC2 (configuration not stated),inactive: 0.989
19,Cc1nc2c(=O)n(C)c(=O)nc-2n(C)n1,active: 0.0393
20,COc1ccc([C@@H](CN)C(C)C)cc1OC,inactive: 1.01
21,COC(=O)[C@H]1CNCCN1c1ccccc1,inactive: 0.984
22,Cc1cccc(C)c1NC1=NCCCS1,inactive: 1
23,CC(C)NC(=O)C1=NO[C@]2(CCNC2)C1,inactive: 0.997

row,Structure (SMILES),relative growth
1,O=C(CCCN1CCC2(CC1)C(=O)N(Cc1cccc(F)c1)CN2c1ccccc1)c1ccc(F)cc1,inactive: 0.979
2,C/C(=C\[C@@H](N)C(=O)O)CP(=O)(O)O,inactive: 1.02
3,COC(=O)[C@@H]1[C@@H](CO)[C@@H]2Cn3c(ccc(C4=CCCC4)c3=O)[C@H]1N2S(=O)(=O)c1cn(C)cn1,inactive: 0.978
4,Br.COC(=O)C1=CCCN(C)C1,inactive: 1.05
5,COc1ccc(OC(=O)N(C)C[C@@H]2OCc3ccccc3-c3c(n(C)c4ccccc34)C(=O)N([C@H](C)CO)C[C@H]2C)cc1,inactive: 1.03
6,O=C1C=C2C(=CCO[C@@H]2O)O1,inactive: 1
7,O=S(=O)(N[C@H]1CCO[C@]2(CCNC2)C1)C1CC1,inactive: 1.01
8,CC(N)C(O)c1ccccc1.Cl (configuration not stated),inactive: 1.06
9,CCC(C(=O)[O-])C1CCC(C)C(C(C)C(O)C(C)C(=O)C(CC)C2OC3(C=CC(O)C4(CCC(C)(C5CCC(O)(CC)C(C)O5)O4)O3)C(C)CC2C)O1.[Na+] (configuration not stated),inactive: 0.729
10,CC1(C)S[C@@H]2[C@H](N)C(=O)N2[C@H]1C(=O)O,inactive: 1.01
11,CC[C@@]1(O)C[C@H](O[C@H]2C[C@H](N(C)C)[C@H](O)[C@H](C)O2)c2c(cc3c(c2O)C(=O)c2c(O)ccc(O)c2C3=O)[C@H]1C(=O)OC,inactive: 1.06
12,NC(=O)CN1CCCC1=O,inactive: 0.984
13,O=C(CN1CCOCC1)c1ccc(O)cc1O,inactive: 1
14,COc1cc2c(cc1OC)C(C)NCC2 (configuration not stated),inactive: 0.987
15,Cc1cccc(Cc2c[nH]cn2)c1C.Cl,inactive: 1.1
16,CCN1C[C@@]2(C)CC[C@H](OC)C34[C@@H]2[C@H](O)[C@]2(OCO[C@@]25C[C@H](OC)[C@H]2C[C@]3(O)[C@@H]5[C@H]2O)[C@@H]14,inactive: 0.985
17,O=c1[nH]c2cc(N3CCNCC3)ccc2o1,inactive: 1
18,O=C(NN=Cc1ccc([N+](=O)[O-])o1)c1cc([N+](=O)[O-])cc([N+](=O)[O-])c1O,inactive: 1.12
19,CN(C)C(=O)[C@H]1CCC2(CCNCC2)CO1,inactive: 0.989
20,CC(C)CC1C(=O)N2CCCC2C2(O)OC(NC(=O)C3C=C4c5cccc6[nH]c(Br)c(c56)CC4N(C)C3)(C(C)C)C(=O)N12.CS(=O)(=O)O (configuration not stated),inactive: 1.07
21,[N-]=[N+]=NCc1ccccc1C[C@]1(C(=O)NCc2ccccc2)N=C(c2ccc(OCCCO)cc2)O[C@H]1c1ccccc1N=[N+]=[N-],inactive: 0.987
22,O[C@H]1C2CN3CCN(C2)CC1(c1ccccc1)C3,inactive: 1.01
23,CNc1ccc(C(=O)C[C@@H](O)CC[C@@H](C)[C@H]2OC(=O)C[C@@H](O)CC(=O)C[C@@H](O)C[C@@H](O)C[C@@H](O)C[C@@H](O)C[C@@]3(O)C[C@@H](O)[C@H](C(=O)OC)[C@@H](C[C@@H](O[C@@H]4O[C@H](C)[C@@H](O)[C@H](N)[C@@H]4O)\C=C/C=C\C=C/C=C\C=C/C=C\C=C/[C@@H]2C)O3)cc1,inactive: 1.01
